# According to publication PMC4336329 (PLoS ONE, 2015):
# In all, about 310,000 compounds went through this assay and about 14,000 (4.5%) showed an effect of 50% or more. The effect is printed as a negative number. Some of the results follow.
# Biological target: human ether-à-go-go-related gene (hERG) potassium channel (human, UniProt Q12809)
# Assay: primary screen, population patch clamp on CHO cells stably expressing hERG
# 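Also: peak tail current of the secondary pulse compared with the same well before compound.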
# Sequence of human ether-à-go-go-related gene (hERG) potassium channel (Q12809 whole entry, looked up): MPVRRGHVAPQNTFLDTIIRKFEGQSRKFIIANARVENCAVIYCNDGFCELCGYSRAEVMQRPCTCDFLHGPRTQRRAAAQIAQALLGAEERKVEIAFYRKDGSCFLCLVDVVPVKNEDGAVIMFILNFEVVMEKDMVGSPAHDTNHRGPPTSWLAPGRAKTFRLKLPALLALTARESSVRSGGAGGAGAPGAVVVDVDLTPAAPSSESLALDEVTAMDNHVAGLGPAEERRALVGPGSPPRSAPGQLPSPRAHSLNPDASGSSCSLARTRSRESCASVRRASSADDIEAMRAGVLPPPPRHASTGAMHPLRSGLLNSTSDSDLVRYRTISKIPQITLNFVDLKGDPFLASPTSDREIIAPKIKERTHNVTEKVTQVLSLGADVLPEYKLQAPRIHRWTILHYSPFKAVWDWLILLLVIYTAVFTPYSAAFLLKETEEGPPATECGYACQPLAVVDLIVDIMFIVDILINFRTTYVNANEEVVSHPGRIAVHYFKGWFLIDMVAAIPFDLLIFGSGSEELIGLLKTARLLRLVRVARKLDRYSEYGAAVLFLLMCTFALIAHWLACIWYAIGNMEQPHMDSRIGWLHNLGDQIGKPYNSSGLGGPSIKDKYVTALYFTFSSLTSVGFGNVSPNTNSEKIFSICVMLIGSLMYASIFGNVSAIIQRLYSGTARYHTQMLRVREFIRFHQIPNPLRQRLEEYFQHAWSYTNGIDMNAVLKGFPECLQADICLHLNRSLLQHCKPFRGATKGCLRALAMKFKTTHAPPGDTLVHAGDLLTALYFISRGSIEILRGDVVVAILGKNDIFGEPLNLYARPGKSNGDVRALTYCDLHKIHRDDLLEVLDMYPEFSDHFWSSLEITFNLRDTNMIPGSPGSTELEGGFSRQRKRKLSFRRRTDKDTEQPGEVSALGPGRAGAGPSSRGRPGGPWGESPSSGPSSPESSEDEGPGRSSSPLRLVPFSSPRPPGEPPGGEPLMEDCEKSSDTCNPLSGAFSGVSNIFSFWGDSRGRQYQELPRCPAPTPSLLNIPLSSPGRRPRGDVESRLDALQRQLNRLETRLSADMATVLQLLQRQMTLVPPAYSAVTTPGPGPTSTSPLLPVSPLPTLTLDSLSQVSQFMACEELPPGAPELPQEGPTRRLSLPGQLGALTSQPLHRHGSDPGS
row,Structure (SMILES),"hERG current change (%, negative = inhibition) at 10uM [%]"
1,Nc1nc(C(=O)N2CCOCC2)nn1C(=O)c1ccc(Cl)cc1,6.43
2,Cc1cc(=O)oc2cc(OC(=O)c3ccccc3)ccc12,15.3
3,CCOC(=O)C1=C(CS(=O)(=O)c2ccc(C)cc2)NC(=O)NC1c1cc(OC)c(OC)c(OC)c1 (stereo not shown),-29.8
4,CNC(=O)COC(=O)/C=C/c1ccco1,8.03
5,Cc1ccc(NC(=O)COc2coc(CN3CCN(Cc4ccccc4)CC3)cc2=O)cc1,-73.3
6,CCN(CC(=O)NCc1ccc(Cl)cc1)C(=O)NCc1ccc(Cl)cc1,-48.4
7,COc1cc(-c2nnc(COc3ccc4ccccc4c3)o2)cc(OC)c1OC,-0.525
8,Cc1onc(-c2ccccc2)c1C(=O)OCc1nnc(-c2ccc([N+](=O)[O-])cc2)o1,-71.5
9,CN(CCc1cnn(C)c1)Cc1cn(C)nc1-c1ccccc1F,9.85
10,O=C(CCn1cnc2ccccc21)N/N=C/c1ccc(O)cc1,10.8
11,O=C(Nc1ccccc1F)c1ccc2nc(N3C(=O)CCC3=O)sc2c1,8.18
12,Cc1ccc(OCCN(C)C(=O)C2CCC(=O)N(Cc3ccccc3F)C2)cc1 (stereo not shown),-42.9
13,O=C(CCN1CCN(CCO)CC1)Nc1cccc(Br)c1,-19
14,CC(NC(=O)C1CCC(=O)N1Cc1ccccc1Cl)c1ccccc1 (stereo not shown),12.8
15,Cc1c(C(=O)NCCN2CCOCC2)oc2ccc(Br)cc12,-15
16,Cc1cccc(C(=O)NCC(=O)Nc2ccc(S(=O)(=O)Nc3nc(C)cc(C)n3)cc2)c1,5.47
17,CS(=O)(=O)N1CCC(C(=O)Nc2c(F)cccc2F)CC1,-3.57
18,Cc1cccc(NC(=O)Cn2nnc(-c3ccc(CN4CCCC4)cc3)n2)c1C,-14
19,COc1ccc(N2C(=O)CC(C3CCCO3)C2=O)cc1 (stereo not shown),25
20,COC(=O)CCc1sc(Nc2ccc(Br)cc2)nc1-c1ccc(OC)cc1,4.9
21,Cc1ccc(C)c(/C(O)=C2\C(=O)C(=O)N(Cc3cccnc3)C2c2cccnc2)c1 (stereo not shown),-36.4
22,CC(C)(C)C(=O)Nc1ccc(N=Nc2ccccc2)cc1,-0.305

row,Structure (SMILES),"hERG current change (%, negative = inhibition) at 10uM [%]"
1,O=C(Nc1ccn(Cc2ccccc2)n1)c1cccc(Cn2cc([N+](=O)[O-])cn2)c1,-21.9
2,O=C(O)/C=C\C(=O)Nc1ccccc1N1CCN(c2ccccc2)CC1,14.7
3,CN(C)c1ccc(N2CC(C)(C)C2=O)cc1,7.87
4,C=CCNC(=O)/C(C#N)=C/c1c(C)nn(-c2ccccc2)c1Cl,-20
5,OCCNc1c2ccccc2nc2c(F)c(F)c(F)c(F)c12,14.6
6,COc1cc2cc(C(C)(C)O)oc(=O)c2cc1OC,13
7,Cc1cc(C)n2nc(C(=O)N3CCCC(Nc4ccc(F)c(F)c4)C3)cc2n1 (stereo not shown),5.05
8,CCc1ccc(S(=O)(=O)Nc2ccc(Cl)cn2)cc1,12.5
9,CN(Cc1ccccc1)CC(O)COc1ccc(CNCc2cc3ccccc3s2)cc1 (stereo not shown),-25.7
10,CCC1SC(=Nc2cccc(C)c2)NC1=O (stereo not shown),10.2
11,C=C1C(=O)O[C@H]2[C@H]1[C@@H](O)CC(=C)[C@@H]1CC(=O)[C@@H](C)[C@H]21,13.4
12,N#CCSc1ccccc1NC(=O)COC(=O)CCN1C(=O)C2CC=CCC2C1=O (stereo not shown),-14.6
13,c1ccc(Oc2ccc(-c3ccnc4nc(N5CCN(c6ccccc6)CC5)nn34)cc2)cc1,8.95
14,CSc1ccccc1-n1nnnc1SCC(=O)Nc1ccccc1C,-10.3
15,COc1ccc(-c2nnc(SCC(=O)NCCc3ccc(S(N)(=O)=O)cc3)o2)cc1OC,5.73
16,N#Cc1c2c(nc(N)c1-c1ccccc1)CCCCC2,7.02
17,Cc1[nH]nc(SCC(=O)N2CCC(C)CC2)c1[N+](=O)[O-],11.6
18,CCC(=O)NCCCNc1nc2c(C)cccc2cc1C#N,14.1
19,CC1CCC(NC(=O)C2CCN(c3c4c(nc5ncnn35)CCC4)CC2)CC1 (stereo not shown),-19.3
20,COc1ccc(-n2nc(C(=O)NCC(=O)NC3CCCCCC3)c3ccccc3c2=O)cc1OC,-10
21,CN(C)CCOc1cccc(Cl)c1.O=C(O)C(=O)O,1.34
22,Cc1ccccc1CS(=O)(=O)c1ccc(C(=O)N2CCOCC2)cc1[N+](=O)[O-],-15.5

row,Structure (SMILES),"hERG current change (%, negative = inhibition) at 10uM [%]"
1,COc1cc(C2SCC(=O)Nc3c2c(=O)[nH]n3C2CCCCCC2)cc(OC)c1OC (stereo not shown),-2.29
2,Cc1ccc(-c2nn(CC(=O)N3CCOCC3)c(=O)c3ccccc23)cc1S(=O)(=O)N(C)C,-22.6
3,O=c1c2[nH]c3ccc(F)cc3c2ncn1CC1CCCO1 (stereo not shown),-16
4,O=C(NCCc1c[nH]c2ccccc12)c1cc(S(=O)(=O)N2CCCCC2)ccc1N1CCOCC1,-6.08
5,Br.N=c1scc(-c2ccccc2)n1/N=C/c1ccco1,2.71
6,Fc1ccc(NC(=S)N2CCc3ccccc3C2)c(F)c1,12.4
7,CCc1nnc(NC(=O)c2ccc(S(=O)(=O)N(C)c3ccccc3)cc2)o1,-5.32
8,CC(C)(C)OC(=O)NNC(=O)c1ccc(Cl)cc1,11.7
9,CC(C)C(=O)Nc1cccc(S(=O)(=O)c2cccc(NC(=O)C(C)C)c2)c1,6.43
10,CC1=C(C/C=C(\C)CCC[C@H](C)CCC[C@H](C)CCCC(C)C)C(=O)c2ccccc2C1=O,12.5
11,O=NN(CCCl)C(=O)NCCCl,15.4
12,O=C(Nc1nc2c(s1)CCc1ccccc1-2)c1cccs1,-5.72
13,COc1cc(/C=N/N2C(=O)CSC2=S)ccc1O,8.36
14,CCOc1cc(Cl)c(NC(=O)CC)cc1OCC,14.4
15,Cc1cccc(NC(=O)c2ccccc2OCC(=O)N2CCOCC2)c1C,-6.62
16,O=C(NC(=S)Nc1nc2c(s1)CCCC2)c1ccccc1,18.4
17,COc1ccccc1C(CCNCc1ccccc1)c1ccc(OC(C)C)cc1 (stereo not shown),-59.3
18,O=C(Cn1nnc(-c2ccccc2-n2cnnn2)n1)NCc1ccccc1,-5.93
19,CN(C)c1ccc(C2C=C(c3ccc(Cl)cc3OC(F)F)Nc3ncnn32)cc1 (stereo not shown),-15
20,Cc1cccc(NC(=O)C2CCN(C(=O)c3ccc(Cl)cc3)CC2)n1,-51.5
21,COc1ccc(-c2nc(CN(Cc3cnn(C)c3)C(C)C)c(C)o2)c(OC)c1,-37.9
22,CCCCC(CC)CNC(=O)CN1C(=O)NC2(CCc3ccccc32)C1=O (stereo not shown),-2.96

row,Structure (SMILES),"hERG current change (%, negative = inhibition) at 10uM [%]"
1,COC(=O)CCCC(=O)N1CCC(CCC(=O)NC2CC2)CC1,16.6
2,Cc1cc(C)cc(C(=O)N2CC(C)OC(C)C2)c1 (stereo not shown),-0.601
3,COC(=O)c1c(NC(=O)C(C)(C)C)csc1C,-1.4
4,CCN(N=Nc1cccc([N+](=O)[O-])c1)c1cccc([N+](=O)[O-])c1,-7.75
5,COc1cccc(-n2cc(CNCc3cn(C)nc3-c3ccccc3F)cn2)c1,-19.3
6,Cc1oc(-c2cccc(Cl)c2)nc1CN1CCCC(C(=O)NC(C)c2ccc3c(c2)OCCO3)C1 (stereo not shown),-57.5
7,Cn1c(SCC(=O)N2CCCCCC2)nnc1-c1ccco1,14
8,COc1ccccc1N1C(=O)C2C3CC(c4ccccc4)C(C3)C2C1=O (stereo not shown),-5.22
9,CC(C)(C)C(=O)Nc1ccc(Cc2ccncc2)cc1,12.1
10,CCOc1ccc(Nc2nc3c(C)cccc3cc2C#N)cc1,4.76
11,COc1ccc2sc(-c3ccccc3OC)c(-c3ccc(O)cc3)c2c1,15.1
12,CCOCCn1c(=NC(=O)CSCC(=O)Nc2cc(C)on2)sc2cc(OC)ccc21,-39.8
13,CC(C)C(NC(=O)c1ccco1)C(=O)OCc1cc([N+](=O)[O-])cc2c1OCOC2 (stereo not shown),-11.3
14,COc1ccc(N2CC(O)=C(c3nc(-c4ccc(Cl)cc4)cs3)C2=N)cc1,36.1
15,O=C(Cn1cc(Cl)c([N+](=O)[O-])n1)NCCC1=CCCCC1,12.1
16,COc1ccc(S(=O)(=O)N2CCC(C(=O)NCCN3CCOCC3)CC2)cc1,14.2
17,CC(C)CNC(=O)C1CCN(S(=O)(=O)c2ccc(-n3cnnn3)cc2)CC1,-55.3
18,CNC(=O)C1CC(=O)N(CCc2ccccc2)C(=Nc2ccc(OC)cc2)S1 (stereo not shown),12.1
19,CCOC(=O)N1CCN(S(=O)(=O)c2cc(OCC)ccc2OCC)CC1,3.88
20,O=c1[nH]ncc(N/N=C\c2ccncc2)c1Cl,18.1
21,Cn1c(=O)c(=O)n(C)c2cc(S(=O)(=O)N3CC(=O)N(CCc4ccccc4)C(=O)C3)ccc21,19.4
22,Nc1nonc1-n1nnc(C(=O)N/N=C/c2ccc(OCc3ccccc3)cc2)c1CN1CCCCC1,7.17
